# Assay results as given in publication PMC4336329 (PLoS ONE, 2015).
# About 2,200 (0.71%) of roughly 310,000 compounds showed an effect of 50% or more. The effect is printed as a negative number. Some of the results follow.
# Target: human ether-à-go-go-related gene (hERG) potassium channel (human, UniProt Q12809)
# Experiment: primary screen, population patch clamp on CHO cells stably expressing hERG
# human ether-à-go-go-related gene (hERG) potassium channel, sequence (Q12809 whole entry, looked up): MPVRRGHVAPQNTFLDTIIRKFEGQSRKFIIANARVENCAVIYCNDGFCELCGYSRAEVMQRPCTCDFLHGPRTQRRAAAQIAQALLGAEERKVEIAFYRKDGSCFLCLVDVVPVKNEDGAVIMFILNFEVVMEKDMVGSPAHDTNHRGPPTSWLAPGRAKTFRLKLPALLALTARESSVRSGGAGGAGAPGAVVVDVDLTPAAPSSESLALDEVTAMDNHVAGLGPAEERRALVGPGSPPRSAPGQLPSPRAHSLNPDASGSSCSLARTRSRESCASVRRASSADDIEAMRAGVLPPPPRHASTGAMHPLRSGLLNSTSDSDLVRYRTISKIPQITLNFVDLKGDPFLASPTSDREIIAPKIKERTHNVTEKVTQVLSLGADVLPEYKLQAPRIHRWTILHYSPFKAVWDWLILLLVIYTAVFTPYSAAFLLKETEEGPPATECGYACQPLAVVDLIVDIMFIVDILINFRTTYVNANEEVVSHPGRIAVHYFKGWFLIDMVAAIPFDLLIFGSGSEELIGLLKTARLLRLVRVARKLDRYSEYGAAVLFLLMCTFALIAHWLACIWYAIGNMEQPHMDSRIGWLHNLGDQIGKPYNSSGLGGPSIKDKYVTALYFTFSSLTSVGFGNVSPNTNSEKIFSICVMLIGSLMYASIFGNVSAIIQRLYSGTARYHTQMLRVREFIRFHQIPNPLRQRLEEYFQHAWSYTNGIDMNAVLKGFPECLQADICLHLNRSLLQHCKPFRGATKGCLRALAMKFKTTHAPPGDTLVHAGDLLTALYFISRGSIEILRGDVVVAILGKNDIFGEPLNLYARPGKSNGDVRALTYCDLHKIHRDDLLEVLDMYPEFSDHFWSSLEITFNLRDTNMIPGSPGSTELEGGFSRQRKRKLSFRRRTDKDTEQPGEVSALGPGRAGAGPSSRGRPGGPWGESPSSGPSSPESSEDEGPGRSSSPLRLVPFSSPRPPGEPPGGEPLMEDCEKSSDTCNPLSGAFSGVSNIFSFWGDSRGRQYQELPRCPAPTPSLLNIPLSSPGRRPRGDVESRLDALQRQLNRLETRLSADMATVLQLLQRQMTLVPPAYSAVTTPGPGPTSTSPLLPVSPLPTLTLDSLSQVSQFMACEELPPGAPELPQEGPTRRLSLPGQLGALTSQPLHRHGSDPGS
row,SMILES,"hERG current change (%, negative = inhibition) at 1uM [%]"
1,CCCCSCc1ccc(C(=O)O)o1,-9.6
2,COC(c1ccccc1)c1nnc(CCC(=O)NC2C3CC4CC(C3)CC2C4)o1 (stereo not shown),6.83
3,Cc1ccccc1-c1cc(=O)c2c(O)cccc2o1,4.06
4,Cn1c(=NC(=O)c2ccccc2[N+](=O)[O-])sc2cc(S(C)(=O)=O)ccc21,3.19
5,COCc1ccc(C(=O)NCC2(N3CCCCC3)CCCCC2)cc1.O=C(O)C(=O)O,1.67
6,CCCn1nc2cc(C(=O)NCc3ccc(OC)cc3)ccc2c1OCC,15.9
7,CCC(C)(C)C(=O)Nc1ncc(S(=O)(=O)c2ccc([N+](=O)[O-])cc2)s1,7.24
8,Cc1cccc(OCc2nnc(SC(C)C(=O)O)n2-c2ccccc2)c1 (stereo not shown),9
9,O=C(/C=C/c1ccccc1)NC(NC(=S)Nc1cccc(O)c1)C(Cl)(Cl)Cl (stereo not shown),6.18
10,Cn1c(=O)n(C)c2cc(NC(=O)COc3ccc(F)cc3)ccc21,-3.2
11,O=C(/C=C/c1ccc(Br)o1)OCc1ccccc1,7.92
12,CCOC(=O)C(CC)n1cnc2c(oc3ccccc32)c1=O (stereo not shown),8.78
13,CCOC(=O)[C@@H]1[C@H]2COc3ccccc3[C@H]2N2C(=O)N(c3ccc(C)cc3)C(=O)[C@]12C,6.82
14,COc1ccc(CCNC(=O)COC(=O)C2CC2)cc1,6.96
15,CCCCOc1nc2ccccc2c(=O)n1-c1ccccc1,2.24
16,CN(Cc1ccccc1Cl)C(=O)C1CCC(=O)N(CCc2cccc(F)c2)C1 (stereo not shown),0.761
17,Cc1nc2c(C)cccn2c(=O)c1NC(=O)c1ccc(Br)o1,12.7
18,Cc1cc(NC(=O)CCC(=O)N(CC(=O)NCC2CCCO2)c2ccc(Cl)c(Cl)c2)no1 (stereo not shown),9.22
19,CC(=O)N[C@H]1[C@H](OC2CCCCC2)O[C@H](COC(C)=O)[C@@H](OC(C)=O)[C@@H]1OC(C)=O,10.4
20,O=C1[C@@H]2Cc3c([nH]c4ccccc34)C(c3ccc(Cl)cc3)N2C(=O)CN1CCO (stereo partly shown),19

row,SMILES,"hERG current change (%, negative = inhibition) at 1uM [%]"
1,CCOC(=O)C(=NC1CCS(=O)(=O)C1)NNc1ccccc1Cl (stereo not shown),4
2,COc1ccc(NC(=S)NC(=O)c2ccc(Br)o2)cc1,14.9
3,COC(=O)c1ccc(Cc2ccc(C(=O)OC)o2)o1,15.8
4,O=c1sc(N2CCN(c3ccccc3F)CC2)nc2ccsc12,5.34
5,Cc1cccc(N2C(=O)CC(n3ccnc3)C2=O)c1C (stereo not shown),13.7
6,COCCCNC(=O)c1ccccc1NS(=O)(=O)c1ccc(C)cc1,3.86
7,COc1ccccc1N1CCN(C(=O)CCc2nnc3ccc(N4CCCC4)nn23)CC1,-1.17
8,C=CCn1c(-c2csc3c2CCC(C)C3)n[nH]c1=S (stereo not shown),7.01
9,O=C(N/N=C/c1ccncc1)c1cc2ccccc2o1,6.93
10,CC1(C)C(C=C(Cl)Cl)C1C(=O)N(Cc1ccccc1Cl)C1CCS(=O)(=O)C1 (stereo not shown),12.1
11,CSc1nnc(Nc2ccccc2C)s1,15.7
12,CCCC(C)C(=O)Nc1cc(S(=O)(=O)N2CCCCC2)ccc1N1CCOCC1 (stereo not shown),3.44
13,O=C(NCc1cccs1)c1nc(-c2cccs2)no1,7.99
14,O=[N+]([O-])c1cc(CN2CCN(c3ccccc3)CC2)c(O)c2ncccc12,12.1
15,O=C(O)CCNC1C=CS(=O)(=O)C1 (stereo not shown),10.2
16,COc1ccccc1/C=N/OCC(=O)NCc1ccc2c(c1)OCO2,5.44
17,CCOc1ncccc1C(=O)OCC(=O)Nc1ccc(C)c(S(=O)(=O)N(C)C)c1,-10.7
18,CCOc1ccc(CN2CCN(C3CCSCC3)CC2CCO)cc1 (stereo not shown),-76.2
19,CCn1c(C)c(C)c2cc(C(=O)N3CCCC3)ccc21,1.63
20,COc1ccc(C(=O)OC(C)C(=O)NCC2CCCCC2)cc1S(=O)(=O)N1CCOCC1 (stereo not shown),-7.96

row,SMILES,"hERG current change (%, negative = inhibition) at 1uM [%]"
1,O=C(N/N=C/c1cc2ccccc2nc1Cl)/C(=C/c1cccs1)NC(=O)c1ccccc1,2.16
2,O=C(O)c1ccccc1/C=N/NC(=O)C1CCCC1,16.4
3,COc1ccc(C)cc1NC(=O)COC(=O)c1ccc2c(c1)OCO2,2.9
4,Cc1ccc(C)c(N(C)C(=O)CCS(=O)(=O)c2cccc3nonc23)c1,16.3
5,CCCCNC(=O)N1CCN(C/C=C/c2ccccc2)CC1,-5.72
6,OC(COc1ccccc1)CN1CCN(c2ncccn2)CC1 (stereo not shown),-3.99
7,CCN(CC)S(=O)(=O)c1ccc(OC)nc1,-5.33
8,Cc1c2cccn2cc[n+]1C.[I-],3.78
9,CC(Sc1nnc2ccccn12)C(=O)Nc1ccc2c(c1)OCO2 (stereo not shown),5.15
10,O=C(NCCN1CCOCC1)c1ccc(CS(=O)(=O)c2c(Cl)cccc2Cl)o1,5.1
11,C=CCN1C(=O)NC(=O)/C(=C/c2ccc(OCC(=O)Nc3ccc(C)cc3)cc2)C1=O,15.3
12,COc1ccc(C)cc1NC(=O)CC1COc2ccccc2O1 (stereo not shown),3.47
13,Cc1ccc(S(=O)(=O)Nc2c(C)[nH]c(=O)[nH]c2=O)cc1C,12.2
14,O=C(Nc1ncccc1O)c1c(O)c2ccccc2[nH]c1=O,6.38
15,COc1cc(C(C)=O)ccc1OCC(=O)Nc1ccc(C)c(S(=O)(=O)N2CCCCCC2)c1,8.06
16,CCN(C(=O)COC(=O)c1cc(NS(=O)(=O)c2ccc(Cl)c([N+](=O)[O-])c2)ccc1O)C1CCCCC1,3.94
17,CCOC(=O)C1CCN(c2cc3c(cc2NC(=O)c2ccc(F)cc2)n(C)c(=O)n3C)CC1,19.6
18,O=c1oc2ccccc2cc1-c1ccc(O)cc1O,12.4
